Measurements: US8883841B2, “Oncogenic ras-specific cytotoxic compound and methods of use thereof” (The Board of Regents of the University of Texas System, priority 2005, dated 2014)

Assays:
SN12C = assay: NCI in-vitro testing, SN12C (Renal Cancer)
HL-60(TB) = assay: NCI in-vitro testing, HL-60(TB) (Leukemia)
SK-MEL-5 = assay: NCI in-vitro testing, SK-MEL-5 (Melanoma)
SK-MEL-28 = assay: NCI in-vitro testing, SK-MEL-28 (Melanoma)
CAKI-1 = assay: NCI in-vitro testing, CAKI-1 (Renal Cancer); settings: CAK1-1
BT-549 = assay: NCI in-vitro testing, BT-549 (Breast Cancer)
CCRF-CEM = assay: NCI in-vitro testing, CCRF-CEM (Leukemia)
HOP-92 = assay: NCI in-vitro testing, HOP-92 (Non-Small Cell Lung Cancer)
MDA-MB-231/ATCC = assay: NCI in-vitro testing, MDA-MB-231/ATCC (Breast Cancer)
SF-295 = assay: NCI in-vitro testing, SF-295 (CNS Cancer)
[1] = Log10 Concentration −4.0 (Molar)
[2] = Log10 Concentration −5.0 (Molar)
[3] = Log10 Concentration −6.0 (Molar)
[4] = Log10 Concentration −7.0 (Molar)
[5] = Log10 Concentration −8.0 (Molar)

OCc1cn(Cc2ccc(Cl)cc2)c2ccccc12 [Oncrasin K060, 1H-Indole-3-methanol, 1-[(4-chlorophenyl)methyl]-]
Mean Optical Densities (SN12C; [1]): 0.308 | Mean Optical Densities (SN12C; [2]): 1.234 | Mean Optical Densities (SN12C; [3]): 1.874 | Mean Optical Densities (SN12C; [4]): 2.047 | Mean Optical Densities (SN12C; [5]): 2.103 | Mean Optical Densities (HL-60(TB); [1]): 0.072 | Mean Optical Densities (HL-60(TB); [2]): 0.402 | Mean Optical Densities (HL-60(TB); [3]): 0.918 | Mean Optical Densities (HL-60(TB); [4]): 1.057 | Mean Optical Densities (HL-60(TB); [5]): 1.135 | Mean Optical Densities (SK-MEL-5; [1]): 0.010 | Mean Optical Densities (SK-MEL-5; [2]): 0.855 | Mean Optical Densities (SK-MEL-5; [3]): 1.339 | Mean Optical Densities (SK-MEL-5; [4]): 1.602 | Mean Optical Densities (SK-MEL-5; [5]): 1.633 | Mean Optical Densities (SK-MEL-28; [1]): 0.113 | Mean Optical Densities (SK-MEL-28; [2]): 0.600 | Mean Optical Densities (SK-MEL-28; [3]): 0.702 | Mean Optical Densities (SK-MEL-28; [4]): 0.786 | Mean Optical Densities (SK-MEL-28; [5]): 0.754 | Mean Optical Densities (CAKI-1; [1]): 0.433 | Mean Optical Densities (CAKI-1; [2]): 0.226 | Mean Optical Densities (CAKI-1; [3]): 0.337 | Mean Optical Densities (CAKI-1; [4]): 0.416 | Mean Optical Densities (CAKI-1; [5]): 0.431 | Mean Optical Densities (BT-549; [1]): 0.066 | Mean Optical Densities (BT-549; [2]): 0.524 | Mean Optical Densities (BT-549; [3]): 0.782 | Mean Optical Densities (BT-549; [4]): 0.856 | Mean Optical Densities (BT-549; [5]): 0.831 | Mean Optical Densities (CCRF-CEM; [1]): 0.116 | Mean Optical Densities (CCRF-CEM; [3]): 1.841 | Mean Optical Densities (CCRF-CEM; [4]): 1.900 | Mean Optical Densities (CCRF-CEM; [5]): 1.946 | Mean Optical Densities (HOP-92; [1]): 0.175 | Mean Optical Densities (HOP-92; [2]): 0.573 | Mean Optical Densities (HOP-92; [3]): 0.785 | Mean Optical Densities (HOP-92; [4]): 0.763 | Mean Optical Densities (HOP-92; [5]): 0.816 | Mean Optical Densities (MDA-MB-231/ATCC; [1]): 0.380 | Mean Optical Densities (MDA-MB-231/ATCC; [2]): 0.904 | Mean Optical Densities (MDA-MB-231/ATCC; [3]): 1.255 | Mean Optical Densities (MDA-MB-231/ATCC; [4]): 1.932 | Mean Optical Densities (MDA-MB-231/ATCC; [5]): 1.237 | Mean Optical Densities (SF-295; [1]): 0.608 | Mean Optical Densities (SF-295; [2]): 0.991 | Mean Optical Densities (SF-295; [3]): 1.603 | Mean Optical Densities (SF-295; [4]): 1.964 | Mean Optical Densities (SF-295; [5]): 2.364
